# Experimental data published in the supplement of paper PMC8728848.
# The list shows a part of the results.
# What was measured:
# Assay in all cases: glycan array binding signal (z-score within array); higher = stronger binding
# Conditions in all cases: glycan notation: IUPAC condensed, linker removed
# [1] = biological target: Gal(b1-3)GlcNAc(b1-2)Man(a1-3)[Gal(b1-3)GlcNAc(b1-2)Man(a1-6)]Man(b1-4)GlcNAc(b1-4)[Fuc(a1-6)]GlcNAc
# Method in brief: (§1)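 Glycan array data were curated from 3228 arrays in the Consortium for Functional Glycomics database and kept only where the protein sequence was available. Glycan names were converted to IUPAC-condensed notation, and columns mapping to the same glycan were averaged. The binding signal is a within-array Z-score, averaged across arrays of the same protein sequence at different concentrations or buffers and across linkers. Negative Z-scores can be read as non-binding.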
# [2] = biological target: Gal(b1-3)GlcNAc(b1-2)Man(a1-3)[GlcNAc(b1-4)][Gal(b1-3)GlcNAc(b1-2)Man(a1-6)]Man(b1-4)GlcNAc(b1-4)GlcNAc
# Method in brief: as §1
# [3] = biological target: Gal(b1-3)GlcNAc(b1-2)[Gal(b1-3)GlcNAc(b1-6)]Man(a1-6)[Gal(b1-3)GlcNAc(b1-2)Man(a1-3)]Man(b1-4)GlcNAc(b1-4)GlcNAc
# Method in brief: as §1
# [4] = biological target: Gal(b1-3)GlcNAc(b1-3)Gal(b1-3)GlcNAc
# Method in brief: as §1
# [5] = biological target: Gal(b1-3)GlcNAc(b1-3)Gal(b1-4)Glc
# Method in brief: as §1
# [6] = biological target: Gal(b1-3)GlcNAc(b1-3)Gal(b1-4)GlcNAc
# Method in brief: as §1
# [7] = biological target: Gal(b1-3)GlcNAc(b1-3)Gal(b1-4)GlcNAc(b1-2)Man(a1-3)[Gal(b1-3)GlcNAc(b1-3)Gal(b1-4)GlcNAc(b1-2)Man(a1-6)]Man(b1-4)GlcNAc(b1-4)GlcNAc
# Method in brief: as §1
# [8] = biological target: Gal(b1-3)GlcNAc(b1-3)Gal(b1-4)GlcNAc(b1-2)[Gal(b1-3)GlcNAc(b1-3)Gal(b1-4)GlcNAc(b1-6)]Man(a1-6)[Gal(b1-3)GlcNAc(b1-3)Gal(b1-4)GlcNAc(b1-2)Man(a1-3)]Man(b1-4)GlcNAc(b1-4)[Fuc(a1-6)]GlcNAc
# Method in brief: as §1
# [9] = biological target: Gal(b1-3)GlcNAc(b1-3)Gal(b1-4)GlcNAc(b1-3)Gal(b1-4)GlcNAc(b1-2)[Gal(b1-3)GlcNAc(b1-3)Gal(b1-4)GlcNAc(b1-3)Gal(b1-4)GlcNAc(b1-6)]Man(a1-6)[Gal(b1-3)GlcNAc(b1-3)Gal(b1-4)GlcNAc(b1-3)Gal(b1-4)GlcNAc(b1-2)Man(a1-3)]Man(b1-4)GlcNAc(b1-4)[Fuc(a1-6)]GlcNAc
# Method in brief: as §1
# [10] = biological target: Gal(b1-3)GlcNAc(b1-3)Gal(b1-4)GlcNAc(b1-6)[Gal(b1-3)GlcNAc(b1-3)]Gal(b1-4)Glc
# Method in brief: as §1
# [11] = biological target: Gal(b1-3)GlcNAc(b1-3)Gal(b1-4)[Fuc(a1-3)]GlcNAc
# Method in brief: as §1
# [12] = biological target: Gal(b1-3)GlcNAc(b1-3)Gal(b1-4)[Fuc(a1-3)]GlcNAc(b1-6)[Gal(b1-3)GlcNAc(b1-3)]Gal(b1-4)Glc
# Method in brief: as §1
# [13] = biological target: Gal(b1-3)GlcNAc(b1-3)GalNAc
# Method in brief: as §1
# [14] = biological target: Gal(b1-3)GlcNAc(b1-6)Gal(b1-4)GlcNAc
# Method in brief: as §1
# [15] = biological target: Gal(b1-3)GlcNAc(b1-6)GalNAc
# Method in brief: as §1
# [16] = biological target: Gal(b1-3)GlcNAc(b1-6)[Gal(b1-3)]GalNAc
# Method in brief: as §1
# [17] = biological target: Gal(b1-3)GlcNAc6S
# Method in brief: as §1
# [18] = biological target: Gal(b1-3)[Fuc(a1-4)]GlcNAc
# Method in brief: as §1
# [19] = biological target: Gal(b1-3)[Fuc(a1-4)]GlcNAc(b1-2)Man
# Method in brief: as §1
# [20] = biological target: Gal(b1-3)[Fuc(a1-4)]GlcNAc(b1-2)Man(a1-3)[Gal(b1-3)[Fuc(a1-4)]GlcNAc(b1-2)Man(a1-6)]Man(b1-4)GlcNAc(b1-4)[Fuc(a1-6)]GlcNAc
# Method in brief: as §1
# [21] = biological target: Gal(b1-3)[Fuc(a1-4)]GlcNAc(b1-3)Gal(b1-3)[Fuc(a1-4)]GlcNAc
# Method in brief: as §1
# [22] = biological target: Gal(b1-3)[Fuc(a1-4)]GlcNAc(b1-3)Gal(b1-4)[Fuc(a1-3)]GlcNAc
# Method in brief: as §1
# [23] = biological target: Gal(b1-3)[Fuc(a1-4)]GlcNAc(b1-6)GalNAc
# Method in brief: as §1
# [24] = biological target: Gal(b1-3)[GlcNAc(b1-6)]GalNAc
# Method in brief: as §1
# [25] = biological target: Gal(b1-3)[Neu5Ac(a2-6)]GalNAc
# Method in brief: as §1
# [26] = biological target: Gal(b1-3)[Neu5Ac(a2-6)]GlcNAc(b1-4)Gal(b1-4)Glc
# Method in brief: as §1
# [27] = biological target: Gal(b1-3)[Neu5Ac(b2-6)]GalNAc
# Method in brief: as §1
# [28] = biological target: Gal(b1-4)Gal
# Method in brief: as §1
# [29] = biological target: Gal(b1-4)GalNAc(a1-3)[Fuc(a1-2)]Gal(b1-4)GlcNAc
# Method in brief: as §1
# [30] = biological target: Gal(b1-4)GalNAc(b1-3)[Fuc(a1-2)]Gal(b1-4)GlcNAc
# Method in brief: as §1
# [31] = biological target: Gal(b1-4)Glc
# Method in brief: as §1
# [32] = biological target: Gal(b1-4)Glc6S
# Method in brief: as §1
# [33] = biological target: Gal(b1-4)GlcNAc
# Method in brief: as §1
# [34] = biological target: Gal(b1-4)GlcNAc(a1-6)Gal(b1-4)GlcNAc
# Method in brief: as §1
# [35] = biological target: Gal(b1-4)GlcNAc(b1-2)Man
# Method in brief: as §1
# [36] = biological target: Gal(b1-4)GlcNAc(b1-2)Man(a1-3)Man(b1-4)GlcNAc(b1-4)GlcNAc
# Method in brief: as §1
# [37] = biological target: Gal(b1-4)GlcNAc(b1-2)Man(a1-3)[Gal(b1-4)GlcNAc(b1-2)Man(a1-6)]Man(b1-4)GlcNAc(b1-4)GlcNAc
# Method in brief: as §1
binder,measurement,setting,value
PX9961J-bvu-499-24-499 (Bacteroides vulgatus) (protein) LNTDPSTAVPSDDAIKNIDDAQVALNGIYRLASAHSYYGDNYLYYADCRGEDVQARINKGAGRRVSPYYFFDVTADDNFNITLVWNQPYKVIHQANSLIEKLDAGNAGNARPEEVARIKSEALAMRGLALFDLTRLFGMPYTLDNGASLGVPIEIQTTLEDHAPERNTVAQCYEQVLKDLNDALGGLTKEKHDAYMNYWSVKALLSRVYLYMNDNENALKCAEEVINDNGGIYRLFTHDEYPSVWGKDFNSESLFEFYFTMSEPSGGSGGEGAPMVYADNVKDWNNLILTKAYLDLLNEDPEDVRHVFPHLPENAVADTLPVAAKGQPKYLIKYPGKSGSVTDAVSTVNPQDNDLCILRLSEVYLNAAEAAFKIGNTEKALTYLNAIVTRANPAKSVTSADLSLERILKERRKELVGEGHAFFDYMRNGKSVDRSGGWHLTMPEDARVIAPSDPRVALPIPQTEIDANPNIVQNPR,glycan array binding signal (z-score),[1],0.752
same,glycan array binding signal (z-score),[2],2.45
same,glycan array binding signal (z-score),[3],0.349
same,glycan array binding signal (z-score),[4],-0.401
same,glycan array binding signal (z-score),[5],-0.361
same,glycan array binding signal (z-score),[6],-0.482
same,glycan array binding signal (z-score),[7],0.105
same,glycan array binding signal (z-score),[8],0.35
same,glycan array binding signal (z-score),[9],0.403
same,glycan array binding signal (z-score),[10],-0.514
same,glycan array binding signal (z-score),[11],-0.275
same,glycan array binding signal (z-score),[12],-0.458
same,glycan array binding signal (z-score),[13],-0.546
same,glycan array binding signal (z-score),[14],-0.391
same,glycan array binding signal (z-score),[15],-0.402
same,glycan array binding signal (z-score),[16],-0.423
same,glycan array binding signal (z-score),[17],-0.142
same,glycan array binding signal (z-score),[18],0.13
same,glycan array binding signal (z-score),[19],-0.308
same,glycan array binding signal (z-score),[20],0.26
same,glycan array binding signal (z-score),[21],0.025
same,glycan array binding signal (z-score),[22],-0.4
same,glycan array binding signal (z-score),[23],1.04
same,glycan array binding signal (z-score),[24],-0.15
same,glycan array binding signal (z-score),[25],-0.652
same,glycan array binding signal (z-score),[26],0.423
same,glycan array binding signal (z-score),[27],-0.6
same,glycan array binding signal (z-score),[28],-0.334
same,glycan array binding signal (z-score),[29],-0.489
same,glycan array binding signal (z-score),[30],-0.283
same,glycan array binding signal (z-score),[31],-0.297
same,glycan array binding signal (z-score),[32],-0.153
same,glycan array binding signal (z-score),[33],-0.41
same,glycan array binding signal (z-score),[34],0.906
same,glycan array binding signal (z-score),[35],0.15
same,glycan array binding signal (z-score),[36],0.174
same,glycan array binding signal (z-score),[37],-0.717
